In the supplement of paper PMC4967469:
pIC50: −log10 of the molar value. Lines with a small IC50 respond at low doses; where the fit passes the top or lowest dose, that dose stands as a limit. For AUC the same curve is integrated over the 256-fold range of doses and scaled to a fraction; values near 1 show little effect. For some assays here: Where the top dose is marked as inferred, it was calculated from the reported fits. For some assays here: An entry number marks a drug with two screens in the source, which often give different values.

Key:
Assay in all cases: Viability of human cancer cell lines after 72 h of drug (GDSC screen)
[1] = compound: Cn1cnc2c(F)c(Nc3ccc(Br)cc3Cl)c(C(=O)NOCCO)cc21 [AZD6244]; conditions: screen: GDSC drug entry 1062
Procedure: (§1)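 Human cancer cell lines in 384-well plates, medium with 10% serum, drug for 72 h over a 256-fold dose range (nine 2-fold or five 4-fold steps up to the top dose). Adherent lines were fixed and stained with the nucleic acid dye Syto60, suspension lines read with resazurin; signal relative to control wells, capped at 0 and 100%. One two-parameter sigmoid per drug and line, fitted in a mixed model over all curves with the slope shared within a line.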

[2] = compound: COc1cc2c(Nc3ccc(NC(=O)c4ccccc4)cc3)ncnc2cc1OCCCN1CCOCC1 [ZM-447439]; conditions: top dose inferred
Procedure: as §1

[3] = compound: CC(=O)c1c(C)c2cnc(Nc3ccc(N4CCNCC4)cn3)nc2n(C2CCCC2)c1=O [PD-0332991]
Procedure: as §1

Row | Cell Line | AUC [1] | pIC50 [1] | AUC [2] | pIC50 [2] | AUC [3] | pIC50 [3]
1 | SNU-C1 (large intestine, suspension, top dose 4 µM) | 0.901 | < 5.40 | 0.913 | < 5.40 | 0.83 | < 5.40
2 | SNU-C2B (large intestine, adherent, top dose 4 µM) | 0.879 | < 5.40 | 0.972 | < 5.40 | 0.961 | < 5.40
3 | SNU-C5 (large intestine, adherent, top dose 4 µM) | 0.986 | < 5.40 | 0.957 | < 5.40 | 0.875 | < 5.40
4 | SR (lymphoid neoplasm, suspension, top dose 4 µM) | 0.892 | 5.41 | 0.804 | 5.75 | 0.752 | 5.92
5 | ST486 (Burkitt lymphoma, suspension, top dose 4 µM) | 0.942 | < 5.40 | 0.924 | < 5.40 | 0.98 | < 5.40
6 | STS-0421 (soft tissue, adherent, top dose 4 µM) | 0.98 | < 5.40 | 0.973 | < 5.40 | 0.95 | < 5.40
7 | SU-DHL-4 (B-cell lymphoma, suspension, top dose 4 µM) | 0.997 | < 5.40 | 0.997 | < 5.40 | 0.997 | < 5.40
8 | SU-DHL-5 (B-cell lymphoma, suspension, top dose 4 µM) | 0.99 | < 5.40 | 0.694 | 6.12 | 0.859 | 5.68
9 | SU-DHL-6 (B-cell lymphoma, suspension, top dose 4 µM) | 0.995 | < 5.40 | 0.94 | < 5.40 | 0.415 | 6.81
10 | SU-DHL-8 (B-cell lymphoma, suspension, top dose 4 µM) | 0.982 | < 5.40 | 0.91 | < 5.40 | 0.98 | < 5.40
11 | SU-DHL-10 (B-cell lymphoma, suspension, top dose 4 µM) | 0.977 | < 5.40 | 0.75 | 6.00 | 0.738 | 6.03
12 | SU-DHL-16 (B-cell lymphoma, suspension, top dose 4 µM) | 0.995 | < 5.40 | 0.883 | 5.63 | 0.983 | < 5.40
13 | SUIT-2 (pancreas, adherent, top dose 2 µM) | 0.647 | 6.49 | 0.975 | < 5.70 | 0.715 | 6.28
14 | SUP-B8 (B-cell leukaemia, suspension, top dose 4 µM) | 0.989 | < 5.40 | 0.901 | < 5.40 | 0.78 | 5.79
15 | SUP-B15 (lymphoblastic leukaemia, suspension, top dose 4 µM) | 0.977 | < 5.40 | 0.819 | 5.67 | 0.867 | 5.48
16 | SUP-HD1 (Hodgkin lymphoma, suspension, top dose 4 µM) | 0.981 | < 5.40 | 0.972 | < 5.40 | 0.912 | < 5.40

Row | Cell Line | AUC [1] | pIC50 [1] | AUC [2] | pIC50 [2] | AUC [3] | pIC50 [3]
17 | SUP-M2 (anaplastic large cell lymphoma, suspension, top dose 4 µM) | 0.993 | < 5.40 | 0.79 | 5.87 | 0.976 | < 5.40
18 | SUP-T1 (T-cell lymphoblastic leukaemia, suspension, top dose 4 µM) | 0.969 | < 5.40 | 0.952 | < 5.40 | 0.982 | < 5.40
19 | SW48 (large intestine, adherent, top dose 4 µM) | 0.947 | < 5.40 | 0.741 | 5.91 | 0.923 | < 5.40
20 | SW620 (large intestine, adherent, top dose 4 µM) | 0.987 | < 5.40 | 0.947 | < 5.40 | 0.796 | 5.79
21 | SW684 (fibrosarcoma, adherent, top dose 4 µM) | 0.96 | < 5.40 | 0.983 | < 5.40 | 0.965 | < 5.40
22 | SW756 (cervix, adherent, top dose 4 µM) | 0.88 | < 5.40 | 0.937 | < 5.40 | 0.978 | < 5.40
23 | SW780 (bladder, adherent, top dose 4 µM) | 0.625 | 6.24 | 0.836 | 5.52 | 0.698 | 6.02
24 | SW948 (large intestine, adherent, top dose 4 µM) | 0.941 | < 5.40 | 0.962 | < 5.40 | 0.971 | < 5.40
25 | SW954 (urogenital system, adherent, top dose 4 µM) | 0.69 | 6.07 | 0.695 | 6.05 | 0.65 | 6.18
26 | SW962 (urogenital system, adherent, top dose 4 µM) | 0.812 | 5.55 | 0.919 | < 5.40 | 0.628 | 6.21
27 | SW982 (soft tissue, adherent, top dose 4 µM) | 0.865 | 5.43 | 0.886 | < 5.40 | 0.813 | 5.65
28 | SW1710 (bladder, adherent, top dose 4 µM) | 0.836 | 5.56 | 0.871 | 5.40 | 0.743 | 5.89
29 | SW1783 (glioma, adherent, top dose 4 µM) | 0.989 | < 5.40 | 0.981 | < 5.40 | 0.991 | < 5.40
30 | Saos-2 (osteosarcoma, adherent, top dose 4 µM) | 0.945 | < 5.40 | 0.925 | < 5.40 | 0.946 | < 5.40
31 | T84 (large intestine, adherent, top dose 4 µM) | 0.983 | < 5.40 | 0.987 | < 5.40 | 0.989 | < 5.40
32 | T98G (glioma, adherent, top dose 4 µM) | 0.95 | < 5.40 | 0.889 | – | 0.769 | 5.85
